We go through five molecules from patent US20230038638A1.

In one assay the target is T1, human C4b (human) (UniProt P0C0L4).
T1 sequence: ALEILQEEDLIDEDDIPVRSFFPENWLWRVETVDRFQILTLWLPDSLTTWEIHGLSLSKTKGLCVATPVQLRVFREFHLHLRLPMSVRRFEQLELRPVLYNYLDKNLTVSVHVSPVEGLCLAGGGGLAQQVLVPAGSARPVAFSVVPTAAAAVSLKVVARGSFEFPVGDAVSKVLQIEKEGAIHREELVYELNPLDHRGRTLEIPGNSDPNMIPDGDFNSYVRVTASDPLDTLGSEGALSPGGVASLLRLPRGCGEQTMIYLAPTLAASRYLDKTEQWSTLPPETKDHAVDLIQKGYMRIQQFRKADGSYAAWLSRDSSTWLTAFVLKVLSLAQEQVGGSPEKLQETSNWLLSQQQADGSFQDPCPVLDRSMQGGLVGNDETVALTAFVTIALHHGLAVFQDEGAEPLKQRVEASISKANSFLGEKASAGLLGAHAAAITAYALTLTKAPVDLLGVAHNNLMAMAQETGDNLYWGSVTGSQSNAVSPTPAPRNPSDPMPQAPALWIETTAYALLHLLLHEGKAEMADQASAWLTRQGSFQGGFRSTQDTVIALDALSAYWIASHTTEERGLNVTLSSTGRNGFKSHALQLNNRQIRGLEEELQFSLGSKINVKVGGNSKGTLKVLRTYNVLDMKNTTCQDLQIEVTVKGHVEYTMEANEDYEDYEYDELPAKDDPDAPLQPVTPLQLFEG

Assay [1] concerns the target soluble human C3b (human) (UniProt P01024).

B1: CFI-HSA WT; … (SEQ ID NO: 26); CCP_1-4 (enzyme)
chain: [in this place about 600 residues]GGSSGGKVTYTSQEDLVEKKCLAKKYTHLSCDKVFCQPWQRCIEGTCVCKLPYQCPKNGTAVCATNRRSFPTYCQQKSLECLHPGTKFLNNGTCTAEGKFSVSLKHGNTDSEGIVEVKLVDQDKTMFICKSSWSMREANVACLDLGFQQGADTQRRFKLSDLSINSTECLHVHCRGLETSLAECTFTKRRTMGYQDFADVVCYTQKADSPMDDFFQCVNGKYISQMKACDGINDCGDQSDELCCKACQGKGFHCKSGVCIPSQYQCNGEVDCITGEDEVGCAGFASVTQEETEILTADMDAERRRIKSLLPKLSCGVKNRMHIRRKRIVGGKRAQLGDLPWQVAIKDASGITCGGIYIGGCWILTAAHCLRASKTHRYQIWTTVVDWIHPDLKRIVIEYVDRIIFHENYNAGTYQNDIALIEMKKDGNKKDCELPRSIPACVPWSPYLFQPNDTCIVSGWGREKDNERVFSLQWGEVKLISNCSKFYGNRFYEKEMECAGTYDGSIDACKGDSGGPLVCMDANNVTYVWGVVSWGENCGKPEFPGVYTKVANYFDWISYHVGRPFISQYNVGGSSGGSSGGEDCNELPPRRNTEILTGSWSDQTYPEGTQAIYKCRPGYRSLGNVIMVCRKGEWVALNPLRKCQKRPCGHPGDTPFGTFTLTGGNVFEYGVKAVYTCNEGYQLLGEINYRECDTDGWTNDIPICEVVKCLPVTAPENGKIVSSAMEPDREYHFGQAVRFVCNSGYKIEGDEEMHCSDDGFWSKEKPKCVEISCKSPDVINGSPISQKIIYKENERFQYKCNMGYEYSERGDAVCTESGWRPLPSCEE
Consider B1, for which the C4b Screen Ref Fold (fold of CFI-HSA wild type) with human C4b (human) was determined as 0.8. Besides, in assay [1], the iC3b Screen Ref Fold (fold of CFI-HSA wild type) worked out at 0.01.

B2: CFI-HSA Y408L; N531G; E457G; … (SEQ ID NO: 26); CCP_1-4 (enzyme)
chain: [in this place about 600 residues]GGSSGGKVTYTSQEDLVEKKCLAKKYTHLSCDKVFCQPWQRCIEGTCVCKLPYQCPKNGTAVCATNRRSFPTYCQQKSLECLHPGTKFLNNGTCTAEGKFSVSLKHGNTDSEGIVEVKLVDQDKTMFICKSSWSMREANVACLDLGFQQGADTQRRFKLSDLSINSTECLHVHCRGLETSLAECTFTKRRTMGYQDFADVVCYTQKADSPMDDFFQCVNGKYISQMKACDGINDCGDQSDELCCKACQGKGFHCKSGVCIPSQYQCNGEVDCITGEDEVGCAGFASVTQEETEILTADMDAERRRIKSLLPKLSCGVKNRMHIRRKRIVGGKRAQLGDLPWQVAIKDASGITCGGIYIGGCWILTAAHCLRASKTHRYQIWTTVVDWIHPDLKRIVIEYVDRIIFHENYNAGTLQNDIALIEMKKDGNKKDCELPRSIPACVPWSPYLFQPNDTCIVSGWGRGKDNERVFSLQWGEVKLISNCSKFYGNRFYEKEMECAGTYDGSIDACKGDSGGPLVCMDANNVTYVWGVVSWGEGCGKPEFPGVYTKVANYFDWISYHVGRPFISQYNVGGSSGGSSGGEDCNELPPRRNTEILTGSWSDQTYPEGTQAIYKCRPGYRSLGNVIMVCRKGEWVALNPLRKCQKRPCGHPGDTPFGTFTLTGGNVFEYGVKAVYTCNEGYQLLGEINYRECDTDGWTNDIPICEVVKCLPVTAPENGKIVSSAMEPDREYHFGQAVRFVCNSGYKIEGDEEMHCSDDGFWSKEKPKCVEISCKSPDVINGSPISQKIIYKENERFQYKCNMGYEYSERGDAVCTESGWRPLPSCEE
Turning to B2, in the assay with human C4b (human), the C4b Screen Ref Fold (fold of CFI-HSA wild type) was 3.61. Besides, the iC3b Screen Ref Fold (fold of CFI-HSA wild type) in assay [1] came to 0.09.

B3: CFI-HSA Y408L; N531G; … (SEQ ID NO: 26); CCP_1-4 (enzyme)
chain: [in this place about 600 residues]GGSSGGKVTYTSQEDLVEKKCLAKKYTHLSCDKVFCQPWQRCIEGTCVCKLPYQCPKNGTAVCATNRRSFPTYCQQKSLECLHPGTKFLNNGTCTAEGKFSVSLKHGNTDSEGIVEVKLVDQDKTMFICKSSWSMREANVACLDLGFQQGADTQRRFKLSDLSINSTECLHVHCRGLETSLAECTFTKRRTMGYQDFADVVCYTQKADSPMDDFFQCVNGKYISQMKACDGINDCGDQSDELCCKACQGKGFHCKSGVCIPSQYQCNGEVDCITGEDEVGCAGFASVTQEETEILTADMDAERRRIKSLLPKLSCGVKNRMHIRRKRIVGGKRAQLGDLPWQVAIKDASGITCGGIYIGGCWILTAAHCLRASKTHRYQIWTTVVDWIHPDLKRIVIEYVDRIIFHENYNAGTLQNDIALIEMKKDGNKKDCELPRSIPACVPWSPYLFQPNDTCIVSGWGREKDNERVFSLQWGEVKLISNCSKFYGNRFYEKEMECAGTYDGSIDACKGDSGGPLVCMDANNVTYVWGVVSWGEGCGKPEFPGVYTKVANYFDWISYHVGRPFISQYNVGGSSGGSSGGEDCNELPPRRNTEILTGSWSDQTYPEGTQAIYKCRPGYRSLGNVIMVCRKGEWVALNPLRKCQKRPCGHPGDTPFGTFTLTGGNVFEYGVKAVYTCNEGYQLLGEINYRECDTDGWTNDIPICEVVKCLPVTAPENGKIVSSAMEPDREYHFGQAVRFVCNSGYKIEGDEEMHCSDDGFWSKEKPKCVEISCKSPDVINGSPISQKIIYKENERFQYKCNMGYEYSERGDAVCTESGWRPLPSCEE
For the molecule B3, the C4b Screen Ref Fold (fold of CFI-HSA wild type) with human C4b (human) came out at 2.83. Also, in assay [1], the iC3b Screen Ref Fold (fold of CFI-HSA wild type) amounted to 0.06.

B4: CFI-HSA Y408L; N531G; E457G; E461Q; R462K; F464Y; … (SEQ ID NO: 26); CCP_1-4 (enzyme)
chain: [in this place about 600 residues]GGSSGGKVTYTSQEDLVEKKCLAKKYTHLSCDKVFCQPWQRCIEGTCVCKLPYQCPKNGTAVCATNRRSFPTYCQQKSLECLHPGTKFLNNGTCTAEGKFSVSLKHGNTDSEGIVEVKLVDQDKTMFICKSSWSMREANVACLDLGFQQGADTQRRFKLSDLSINSTECLHVHCRGLETSLAECTFTKRRTMGYQDFADVVCYTQKADSPMDDFFQCVNGKYISQMKACDGINDCGDQSDELCCKACQGKGFHCKSGVCIPSQYQCNGEVDCITGEDEVGCAGFASVTQEETEILTADMDAERRRIKSLLPKLSCGVKNRMHIRRKRIVGGKRAQLGDLPWQVAIKDASGITCGGIYIGGCWILTAAHCLRASKTHRYQIWTTVVDWIHPDLKRIVIEYVDRIIFHENYNAGTLQNDIALIEMKKDGNKKDCELPRSIPACVPWSPYLFQPNDTCIVSGWGRGKDNQKVYSLQWGEVKLISNCSKFYGNRFYEKEMECAGTYDGSIDACKGDSGGPLVCMDANNVTYVWGVVSWGEGCGKPEFPGVYTKVANYFDWISYHVGRPFISQYNVGGSSGGSSGGEDCNELPPRRNTEILTGSWSDQTYPEGTQAIYKCRPGYRSLGNVIMVCRKGEWVALNPLRKCQKRPCGHPGDTPFGTFTLTGGNVFEYGVKAVYTCNEGYQLLGEINYRECDTDGWTNDIPICEVVKCLPVTAPENGKIVSSAMEPDREYHFGQAVRFVCNSGYKIEGDEEMHCSDDGFWSKEKPKCVEISCKSPDVINGSPISQKIIYKENERFQYKCNMGYEYSERGDAVCTESGWRPLPSCEE
Regarding B4, the C4b Screen Ref Fold (fold of CFI-HSA wild type) in the assay with human C4b (human) amounted to 1.76. Besides, the iC3b Screen Ref Fold (fold of CFI-HSA wild type) in assay [1] was 0.09.

B5: CFI-HSA WT; … (SEQ ID NO: 26); CCP_2-4 (enzyme)
chain: [in this place about 600 residues]GGSSGGKVTYTSQEDLVEKKCLAKKYTHLSCDKVFCQPWQRCIEGTCVCKLPYQCPKNGTAVCATNRRSFPTYCQQKSLECLHPGTKFLNNGTCTAEGKFSVSLKHGNTDSEGIVEVKLVDQDKTMFICKSSWSMREANVACLDLGFQQGADTQRRFKLSDLSINSTECLHVHCRGLETSLAECTFTKRRTMGYQDFADVVCYTQKADSPMDDFFQCVNGKYISQMKACDGINDCGDQSDELCCKACQGKGFHCKSGVCIPSQYQCNGEVDCITGEDEVGCAGFASVTQEETEILTADMDAERRRIKSLLPKLSCGVKNRMHIRRKRIVGGKRAQLGDLPWQVAIKDASGITCGGIYIGGCWILTAAHCLRASKTHRYQIWTTVVDWIHPDLKRIVIEYVDRIIFHENYNAGTYQNDIALIEMKKDGNKKDCELPRSIPACVPWSPYLFQPNDTCIVSGWGREKDNERVFSLQWGEVKLISNCSKFYGNRFYEKEMECAGTYDGSIDACKGDSGGPLVCMDANNVTYVWGVVSWGENCGKPEFPGVYTKVANYFDWISYHVGRPFISQYNVGGSSGGSSGGRPCGHPGDTPFGTFTLTGGNVFEYGVKAVYTCNEGYQLLGEINYRECDTDGWTNDIPICEVVKCLPVTAPENGKIVSSAMEPDREYHFGQAVRFVCNSGYKIEGDEEMHCSDDGFWSKEKPKCVEISCKSPDVINGSPISQKIIYKENERFQYKCNMGYEYSERGDAVCTESGWRPLPSCEE
As to B5, the C4b Screen Ref Fold (fold of CFI-HSA wild type) in the assay with human C4b (human) was 1.32. The iC3b Screen Ref Fold (fold of CFI-HSA wild type) in assay [1] was -0.01.
